According to the supplement of paper PMC3334620:
Whole data set: some 33,000 sequences, median “E-score (-0.5 to 0.5)” near -0.054, cut for the highest 2% near 0.39. Some of the results follow.

The sequences below were run against Ylr278c (UniProt Q05854) (assay: PBM E-score (8-mer binding enrichment) (E-score (-0.5 to 0.5)); higher = stronger / more preferred TF binding; most listed sequences are background and not binding sites). Conditions: protein concentration: 200 nM; construct: GST-DNA-binding domain.
How it was run: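 Full-length yeast transcription factors or their DNA-binding domains, GST-tagged and expressed with PURExpress, were applied at about 100-200 nM to universal all-10-mer Agilent arrays. These arrays had been made double-stranded by primer extension on fresh or once-stripped slides. Detection used fluorescent anti-GST, normalisation used masliner, and E-scores for ungapped eight-base words pooled with reverse complements came from the Universal PBM Analysis Suite.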

| Sequence | PBM E-score |
| --- | --- |
| TCGGGCAA | 0.146 |
| AGACAGCG | 0.0506 |
| GTCGGTAA | 0.13 |
| ATATAAAC | -0.199 |
| CGCACGGC | 0.184 |
| AGTCGGCC | 0.253 |
| GGGTTTAA | 0.0672 |
| GAGGAATC | -0.0345 |
| AATACAAC | 0.00662 |
| AATAACCA | -0.247 |
| CTTACCAC | -0.157 |
| ATGATTAC | -0.121 |
| ACATTCAG | -0.19 |
| AGCCAGTA | -0.0813 |
| AAATAAAA | -0.0105 |
| TAGATATA | 0.0126 |
| GCTTACGA | -0.215 |
| CGTCTCAA | -0.111 |
| AAAGAAAA | -0.0274 |
| GTAATAGA | -0.0615 |
| ATTCTAAC | -0.14 |
| AATTTACA | -0.257 |
| AGTATACG | -0.151 |
| CCCCTTAC | -0.195 |
| CAATAGCA | -0.0161 |

| Sequence | PBM E-score |
| --- | --- |
| ACTACGCC | -0.0396 |
| ATAACATC | -0.143 |
| ACTGGGTC | -0.146 |
| TGGCGCCA | -0.109 |
| GGAAAGAA | 0.088 |
| ATGGTATA | -0.225 |
| TGCGCCAA | -0.0175 |
| CGGGGTCA | 0.289 |
| CCTGGGAC | -0.225 |
| CCCTCCCA | 0.0446 |
| AACAAGTA | -0.225 |
| AACCTCTG | -0.166 |
| GTTCAATA | -0.00677 |
| AAGATCCA | -0.0199 |
| CTTTCTTA | -0.101 |
| CTTCCGGA | 0.451 |
| AGTACGCG | -0.0482 |
| GACTCGGC | 0.134 |
| GCGTAATA | -0.0719 |
| TATCCCCA | -0.0119 |
| GAATAGTC | -0.0932 |
| ATGGGAAA | -0.185 |
| CACTCCAA | 0.031 |
| CAAAAGTC | 0.0214 |
| ATAGCTCC | 0.119 |

| Sequence | PBM E-score |
| --- | --- |
| GCTATACA | -0.191 |
| ACCATAGT | -0.04 |
| GTGTCTTA | -0.188 |
| CGCCATCC | 0.0379 |
| GTAAACAA | -0.0542 |
| ATACGCGG | 0.202 |
| AGGGACTG | -0.0934 |
| ACGATTAG | -0.0977 |
| GTGTTTAA | -0.0159 |
| GCAAAAGA | -0.148 |
| ATAGCCCG | 0.171 |
| CTAACGAA | -0.0464 |
| GGGTGAAC | -0.0508 |
| CTGTTCGA | -0.278 |
| AAGTGATT | -0.0725 |
| ATTCCTCC | 0.273 |
| CTGTTGCC | -0.111 |
| GACTTTTA | -0.0377 |
| ATAGACCG | 0.0141 |
| CTTCGCTC | 0.0673 |
| CTGCCGTC | 0.0804 |
| GAAATCCA | 0.129 |
| GGTTAATA | 0.103 |
| CAGCTGGG | -0.129 |
| AGACTACC | 0.0713 |

| Sequence | PBM E-score |
| --- | --- |
| ATCAAACC | 0.0293 |
| GCATAGCC | -0.00146 |
| AACGAGTA | -0.0837 |
| CGTGGATA | -0.11 |
| ATCCAGTC | -0.00656 |
| AAGCGGTC | 0.132 |
| ACGTTCAG | -0.293 |
| GCGGTACA | 0.0965 |
| AGCACACT | -0.124 |
| ATCAGATC | -0.0678 |
| CAATTGTA | -0.15 |
| ACAACCCC | 0.166 |
| GATGGTAC | -0.0327 |
| ATAACGGA | 0.31 |
| AGGCTTAT | -0.188 |
| ATAGCCTA | -0.217 |
| CGTGCAAC | -0.0111 |
| GTCTTAGA | -0.201 |
| GCTGCTAA | -0.0103 |
| AATACAGG | 0.00619 |
| AACAGATC | -0.0757 |
| GTTGGCTA | -0.0869 |
| ACGCGCCC | 0.19 |
| GGGTTACC | -0.0256 |
| CCATTATC | -0.167 |

| Sequence | PBM E-score |
| --- | --- |
| CCAGTCCG | 0.322 |
| TAATCAGA | 0.0117 |
| CATTTCAC | 0.0992 |
| CTCCGCAC | 0.41 |
| GCCCTCAC | -0.226 |
| CATCTGCC | 0.0606 |
| CCTGGGGC | -0.0435 |
| AACTGCTC | 0.00565 |
| CGCTCTCC | 0.167 |
| ACATGAAT | -0.185 |
| CCCCTCCA | -0.136 |
| AGATTCCC | 0.21 |
| ACGATGGG | -0.0868 |
| CTATAACA | -0.275 |
| ATTGCAAG | -0.216 |
| AGATCACA | -0.0741 |
| AAGGCTAT | -0.189 |
| AGGCAGAA | -0.0575 |
| CCCGAAAG | 0.238 |
| CATGTGGC | -0.00305 |
| AGAGATCC | 0.0436 |
| CTAGCCGC | 0.132 |
| CCACTTAC | 0.0731 |
| GGCGCGCC | 0.294 |
| ACTACAAT | 0.0161 |

| Sequence | PBM E-score |
| --- | --- |
| ATTTCCCA | -0.169 |
| ATAACACG | 0.0169 |
| AGGCATCC | -0.12 |
| GGAAGTTA | 0.204 |
| AATCAAAC | -0.0046 |
| GGTTCATA | -0.121 |
| CCCCCCGG | 0.22 |
| CGATCTAC | 0.0184 |
| GTTGCTAA | -0.00866 |
| CTGTGAAG | -0.243 |
| CCCTGTGA | -0.334 |
| CCTGTTAC | -0.0951 |
| CGAACAGC | -0.0272 |
| ACCTGATA | -0.0535 |
| CCCGTTCA | -0.0458 |
| CCAACAGG | -0.336 |
| CTATATAC | 0.0926 |
| AAAGGGGG | -0.19 |
| TTGACAAA | 0.00989 |
| ACAATCGT | -0.294 |
| GGTACTAA | 0.137 |
| GTGGCTAA | -0.177 |
| ACGATCCC | 0.0165 |
| CCAAGCGG | 0.0563 |
| AGAGCAAG | -0.00148 |

| Sequence | PBM E-score |
| --- | --- |
| ACACGAGT | -0.126 |
| CGTCCATA | -0.0281 |
| GCGGTATA | 0.145 |
| GGCCACCA | -0.0754 |
| CGGAATTA | 0.466 |
| CCTTAGCC | -0.0253 |
| TCTAAAGA | -0.115 |
| AACCTTAT | -0.17 |
| ACTCCGGA | 0.494 |
| CCAGTCAA | -0.231 |
| AACGGATA | 0.292 |
| ACGGGCAC | -0.151 |
| CGCGAGGC | 0.1 |
| AATAGATC | 0.0283 |
| ATGCGAAT | 0.038 |
| AATAATGA | -0.0499 |
| GAAAATGA | 0.126 |
| AGACCAAG | -0.0136 |
| GAATGCAA | 0.00843 |
| ACCGGTAC | 0.19 |
| CGATAAGC | 0.0987 |
| TGGAGGAA | -0.131 |
